# Structures can show the parent of a compound that is named as a salt. ± gives the standard error. About 75 (6%) of roughly 1,300 compounds showed an effect of 50% or more. The list shows a part of the results.
# Tested on: Trichoderma virens ATCC 9645
# Assay: growth yield (OD600) relative to untreated control; higher = less growth inhibition
# Settings: compound concentration: 100 uM
# Outline: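 Plates were read for OD600 at 40 h and 72 h after Trichoderma virens ATCC 9645 spores (15,000 spores ml^−1 in potato dextrose broth) were grown at 30 °C with library compounds at 100 μM final, with or without a biocide at 200 ng ml^−1. Growth is stated relative to the control with neither agent, as the mean of duplicate screens.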
SMILES,growth yield (40 h) [%],growth yield (72 h) [%]
CN1C(C)(C)CCCC1(C)C [Pempidine],96.6 ± 3.8,96 ± 1.4
Cc1onc(-c2c(Cl)cccc2Cl)c1C(=O)N[C@@H]1C(=O)N2[C@@H]1SC(C)(C)[C@@H]2C(=O)O [Dicloxacillin sodium salt hydrate],100,96.7
CN(C)/N=N/c1[nH]cnc1C(N)=O [Dacarbazine],95.6 ± 1.9,98 ± 3.4
C[N+](C)(C)CCCCCC[N+](C)(C)C [Hexamethonium dibromide dihydrate],98.5 ± 1.3,95.96 ± 0.1
CC[N+](C)(C)Cc1ccccc1Br [Bretylium tosylate],99.3 ± 3.6,97.5
COc1ccc(C(Cl)=C(c2ccc(OC)cc2)c2ccc(OC)cc2)cc1 [Chlorotrianisene],101 ± 2.7,96.7 ± 1.5
Cc1oncc1C(=O)Nc1ccc(C(F)(F)F)cc1 [Leflunomide],72.4 ± 11,94.5 ± 12
O=C(O)c1cccnc1Nc1cccc(C(F)(F)F)c1 [Niflumic acid],71.6 ± 0.79,81.4 ± 2.3
CCOC(=O)[C@H](CCc1ccccc1)N[C@@H](C)C(=O)N1Cc2ccccc2C[C@H]1C(=O)O [Quinapril hydrochloride],98.8 ± 3.8,98.1 ± 1.1
CC1(C)OC(=O)NC1=O [Dimethadione],100 ± 1.3,96.9 ± 1.1
N=C(N)NCC1COC2(CCCCC2)O1 (stereo unspecified) [Guanadrel sulfate],102 ± 1.9,97.43 ± 0.73
CCC[C@H](N[C@@H](C)C(=O)N1[C@H](C(=O)O)C[C@@H]2CCCC[C@@H]21)C(=O)OCC [Perindopril],101 ± 3.5,96.9 ± 2.5
Nc1ccc(C(=O)NCC(=O)O)cc1 [Aminohippuric acid],101 ± 5.2,104 ± 3.6
COc1ccc(NS(=O)(=O)c2ccc(N)cc2)nn1 [Sulfamethoxypyridazine],103 ± 3.8,99.2 ± 3.1
Nc1ccc(S(=O)(=O)c2ccc(N)cc2)cc1 [Dapsone],106 ± 3.8,114 ± 2.3
OCCN1CCN(CCCN2c3ccccc3Sc3ccc(Cl)cc32)CC1 [Perphenazine],59.1 ± 5.1,113 ± 14
CN(C)CCc1c[nH]c2ccc(Cn3cncn3)cc12 [Rizatriptan benzoate],101 ± 2.9,98.4 ± 2.5

SMILES,growth yield (40 h) [%],growth yield (72 h) [%]
C=C1C[C@H]2[C@@H]3C=C(C)C4=CC(=O)CC[C@]4(C)[C@H]3CC[C@]2(C)[C@@]1(OC(C)=O)C(C)=O [Melengestrol acetate],96.6 ± 1.6,94.5 ± 2.4
CC(=O)Oc1cccc2c1C(=O)c1c(OC(C)=O)cc(C(=O)O)cc1C2=O [Diacerein],81.48 ± 0.79,72.58 ± 0.21
CN1CCCCC1CCN1c2ccccc2Sc2ccc([S+](C)[O-])cc21 (stereo unspecified) [Mesoridazine besylate],106.3 ± 0.79,103 ± 1.9
NC(=O)N/N=C/c1ccc([N+](=O)[O-])o1 [Nitrofural],95.5 ± 1.8,97.12 ± 0.84
CCCC(=O)Nc1ncnc2c1ncn2[C@@H]1O[C@@H]2COP(=O)(O)O[C@H]2[C@H]1OC(=O)CCC [Bucladesine sodium salt],97.69 ± 0.79,97.75 ± 0.42
CN(C)CCC[C@@]1(c2ccc(F)cc2)OCc2cc(C#N)ccc21 [Escitalopram oxalate],102 ± 4.3,103 ± 3.5
CN1CCCC(n2nc(Cc3ccc(Cl)cc3)c3ccccc3c2=O)CC1 (stereo unspecified) [Azelastine hydrochloride],111 ± 5.2,116 ± 4.9
CCN1CCN(C(=O)N[C@@H](C(=O)N[C@@H]2C(=O)N3[C@@H]2SC(C)(C)[C@@H]3C(=O)O)c2ccccc2)C(=O)C1=O [Piperacillin sodium salt],107 ± 2.5,102 ± 1.1
CO[C@@H]1[C@@H](OC(N)=O)[C@@H](O)[C@H](Oc2ccc3c(O)c(NC(=O)c4ccc(O)c(CC=C(C)C)c4)c(=O)oc3c2C)OC1(C)C [Novobiocin sodium salt],92 ± 1.8,115 ± 4.7
CN1C2CCCC1CC(NC(=O)c1nn(C)c3ccccc13)C2 (stereo unspecified) [Granisetron],105.6 ± 0.48,100.8 ± 0.94
CC(C)N1CCN(c2ccc(OCC3COC(Cn4cncn4)(c4ccc(Cl)cc4Cl)O3)cc2)CC1 (stereo unspecified) [Terconazole],82.44 ± 0.16,88.4 ± 1.1
O=C(NCCNCC(O)COc1ccc(O)cc1)N1CCOCC1 (stereo unspecified) [Xamoterol hemifumarate],95.3 ± 4.1,94.8 ± 1.7
CN(C)CCOC1=Cc2ccccc2Sc2ccc(Cl)cc21 [Zotepine],89.7 ± 14,114 ± 11
CCN(Cc1ccncc1)C(=O)C(CO)c1ccccc1 (stereo unspecified) [Tropicamide],99.6 ± 1.8,102 ± 1.1
OC(CCN1CCCCC1)(c1ccccc1)C1CC2C=CC1C2 (stereo unspecified) [Biperiden hydrochloride],104 ± 2.9,105 ± 1.9
Cc1ncc([N+](=O)[O-])n1CCO [Metronidazole],101 ± 2.5,98.6 ± 2.5

# From the supplement of paper PMC8007513
